Assay results taken from paper PMC4336329 (PLoS ONE, 2015).
The list shows a part of the results, in another mix than the full data. Effects have a minus sign here.

The compounds below were run against human ether-à-go-go-related gene (hERG) potassium channel (human, UniProt Q12809) (assay: primary screen, population patch clamp on CHO cells stably expressing hERG; higher = less effect of the substance).
Experimental: Briefly, Chinese hamster ovary (CHO) cells stably expressing the hERG channel were dislodged from tissue culture flasks and dispensed into PPC plates. […] During the recording, background leak currents were estimated by a 100 ms step to -80 mV from an initial holding potential of -70 mV and subtracted from the subsequent current measurement. The campaign was conducted in two phases using slight differences in recording protocol. In the first phase, the initial voltage pulse used a 100 ms step to -30 mV from a holding potential of -70 mV, a 2 s conditioning step to +25 mV, and a 2 s test step to -30 mV. During the second phase of the screen, the potential during the conditioning step was raised to +45 mV. In both phases of the campaign, a secondary voltage pulse was applied using the same parameters as the second phase initial pulse. The initial and secondary pulses were applied in the absence of compound, and upon application of 1 μM and 10 μM test concentrations. Small molecule effects on hERG current density were quantified by […].

| Compound | hERG current change (%, negative = inhibition) at 1uM |
| --- | --- |
| CCN(CC)CCOC(=O)C1(C2CCCCC2)CCCCC1.Cl | 4.85% |
| Cl.Fc1ccc(C(c2ccc(F)cc2)N2CCN(C/C=C/c3ccccc3)CC2)cc1 | 3.53% |
| CCN(CC)CCOc1ccc(/C(=C(\Cl)c2ccccc2)c2ccccc2)cc1.O=C(O)CC(O)(CC(=O)O)C(=O)O | 11.6% |
| CN(C)CCN(Cc1cccs1)c1ccccn1.Cl | -57% |
| Cl.O.Oc1ccc2c3c1O[C@H]1[C@@H](O)CC[C@@]4(O)[C@@H](C2)N(CC2CCC2)CC[C@]314 | -6.55% |
| Clc1ccc(COC(Cn2ccnc2)c2ccc(Cl)cc2Cl)c(Cl)c1.O=[N+]([O-])O (centres unmarked) | -4.53% |
| Cl.Oc1ccc2c3c1O[C@H]1[C@@H](O)CC[C@@]4(O)[C@@H](C2)N(CC2CCC2)CC[C@]314 | 6.6% |
| C(=C\c1ccccc1)/CN1CCN(C(c2ccccc2)c2ccccc2)CC1 | 6.47% |
| CCN(CC)CCOc1ccc(/C(=C(/Cl)c2ccccc2)c2ccccc2)cc1.O=C(O)CC(O)(CC(=O)O)C(=O)O | 17.3% |
| CCN[C@H]1C[C@H](C)S(=O)(=O)c2sc(S(N)(=O)=O)cc21.Cl | 14.9% |
| CCCN1CCC[C@@H]2Cc3[nH]ncc3C[C@H]21.Cl | 11.4% |
| CN1CCC(=C2c3ccccc3C=Cc3ccccc32)CC1.Cl | 14.5% |
| CN1C2CCC1CC(OC(c1ccccc1)c1ccccc1)C2.CS(=O)(=O)O (centres unmarked) | -37.7% |
| CCN(CC)CC#CCOC(=O)C(O)(c1ccccc1)C1CCCCC1.Cl (centres unmarked) | 2.55% |
| Br.CN1[C@@H]2CC[C@H]1CC(OC(=O)C(O)c1ccccc1)C2 (some centres unmarked) | 17.2% |
| CN[C@H]1CCc2cc(OC)c(OC)c(OC)c2-c2ccc(OC)c(=O)cc21 | 8.66% |
| Cc1ccccc1C(OCCN(C)C)c1ccccc1.O=C(O)CC(O)(CC(=O)O)C(=O)O (centres unmarked) | 0.703% |
| Clc1ccc(CO/N=C(\Cn2ccnc2)c2ccc(Cl)cc2Cl)c(Cl)c1.O=[N+]([O-])O | 15.3% |
| CN(C)C(=O)C(CCN1CCC(O)(c2ccc(Cl)cc2)CC1)(c1ccccc1)c1ccccc1.Cl | -81.7% |
| CCCCCCCCc1ccc(O)cc1 | 6.37% |
| Cl.Oc1ccc2c3c1OC1C(O)CC[C@@]4(O)[C@@H](C2)N(CC2CCC2)CC[C@]314 (some centres unmarked) | 6.66% |
| Clc1ccc(CSC(Cn2ccnc2)c2ccc(Cl)cc2Cl)cc1.O=[N+]([O-])O (centres unmarked) | 14.8% |
| CN(C)CC/C=C1\c2ccccc2COc2ccccc21.Cl | 2.57% |
| CCCCc1oc2ccccc2c1C(=O)c1cc(I)c(OCCN(CC)CC)c(I)c1.Cl | 14.3% |
| CC(C)(O)c1ccccc1CC[C@@H](SCC1(CC(=O)[O-])CC1)c1cccc(/C=C/c2ccc3ccc(Cl)cc3n2)c1.[Na+] | 9.16% |
| C[C@@H]1C[C@H]2[C@@H]3CCC4=CC(=O)C=C[C@]4(C)[C@@]3(F)[C@@H](O)C[C@]2(C)[C@@]1(O)C(=O)COP(=O)([O-])[O-].[Na+] | 10.7% |
